Here are results for 19 molecules from the antibiotic and cytotoxicity screens of Wong et al. (2023).

For one experiment, the system named is HSkMC. The experiment is described as follows: cytotoxicity call (relative viability < 0.9). The conditions noted are these: 10 µM.
The subject of another experiment is S. aureus RN4220. The experiment is described as follows: growth inhibition call (relative growth <= 0.2). The conditions noted are these: 50 µM.

The other results are listed elsewhere or left out.

With `NCc1cccc2nsnc12`, the cytotoxicity call in the experiment with HSkMC is “inactive”. For the same molecule, the growth inhibition call with S. aureus RN4220 is “inactive”.

Consider `O=C(O)CN1CCOC1=O`, for which the cytotoxicity call with HSkMC is “inactive”. In the experiment with S. aureus RN4220, the growth inhibition call was “inactive”.

With `CC(C)NC(=O)Nc1ccc2c(c1)C(=O)N([C@@H](C)CO)C[C@H](C)[C@@H](CN(C)C(=O)Nc1ccc(F)cc1)OCCCC[C@@H](C)O2`, the cytotoxicity call in the experiment on HSkMC is “inactive”. In addition, the growth inhibition call in the experiment with S. aureus RN4220 was “inactive”.

On to `O=C1N(Cc2ccccc2)Cc2ccccc2C[C@]12N=C(c1ccc(OCCCO)cc1)O[C@@H]2c1ccccc1`, for which, in the experiment with HSkMC, the cytotoxicity call was “inactive”. Also, the growth inhibition call in the experiment on S. aureus RN4220 is “inactive”.

With `COc1ccc(C(=O)Nc2ccc3c(c2)C(=O)N(C)[C@H]2CC[C@H](CC(=O)NCC4CC4)O[C@@H]2CO3)cc1`, in the experiment with HSkMC, the cytotoxicity call is “inactive”. Also, in the experiment on S. aureus RN4220, the growth inhibition call was “inactive”.

On to `O=C1N[C@@H]2[C@@H](O)[C@@H](O)[C@H](O)[C@@H](CO)N2C1=O`, for which the cytotoxicity call with HSkMC is “inactive”. The growth inhibition call with S. aureus RN4220 is “inactive”.

Consider `COc1ccc(S(=O)(=O)Nc2ccc3c(c2)C(=O)N([C@H](C)CO)C[C@H](C)[C@H](CN(C)C(=O)Nc2ccc(F)cc2)OCCCC[C@@H](C)O3)cc1`, for which the cytotoxicity call in the experiment with HSkMC was “inactive”. For the same molecule, the growth inhibition call with S. aureus RN4220 was “inactive”.

Regarding `C[C@H]1CN([C@@H](C)CO)C(=O)c2cc(NC(=O)Nc3ccc(F)cc3)ccc2O[C@@H]1CN(C)Cc1ccc(C(F)(F)F)cc1`, the cytotoxicity call with HSkMC was “inactive”. Also, the growth inhibition call in the experiment on S. aureus RN4220 is “inactive”.

Consider `CN1C(=O)c2cc(NC(=O)c3cscn3)ccc2OC[C@@H]2O[C@H](CC(=O)N3CCOCC3)CC[C@@H]21`, for which, in the experiment on HSkMC, the cytotoxicity call is “inactive”. Besides, the growth inhibition call in the experiment with S. aureus RN4220 is “inactive”.

In the case of `CCCCC1C(=O)N(c2ccccc2)N(c2ccccc2)C1=O`, the cytotoxicity call in the experiment with HSkMC is “inactive”. The growth inhibition call in the experiment on S. aureus RN4220 is “inactive”.

`O=C(O)CC[C@H]1CCC(=O)N1`: the cytotoxicity call with HSkMC was “inactive”. In addition, the growth inhibition call in the experiment on S. aureus RN4220 is “inactive”.

As for `Clc1ccc(CSc2nc3ccccc3s2)cc1`, the cytotoxicity call with HSkMC was “inactive”. For the same molecule, in the experiment with S. aureus RN4220, the growth inhibition call is “inactive”.

For the molecule `O=C(CCc1cn(-c2ccc(C[C@H]3C(=O)O[C@@H](Cc4ccccc4)[C@H]4[C@@H]5C=CCCC=C5CN43)cc2)nn1)NO`, in the experiment with HSkMC, the cytotoxicity call is “inactive”. Also, the growth inhibition call in the experiment on S. aureus RN4220 was “inactive”.

`C[C@H](CO)N1C[C@H](C)[C@H](CN(C)Cc2cccc(C(F)(F)F)c2)Oc2ncc(-c3ccc(F)cc3)cc2C1=O`: the cytotoxicity call in the experiment on HSkMC is “inactive”. Besides, in the experiment on S. aureus RN4220, the growth inhibition call was “inactive”.

Regarding `C[C@H]1CN([C@@H](C)CO)C(=O)c2cc(Br)cnc2O[C@H]1CN(C)S(=O)(=O)c1ccccc1`, the cytotoxicity call in the experiment on HSkMC was “inactive”. For the same molecule, the growth inhibition call with S. aureus RN4220 was “inactive”.

For the molecule `NS(=O)(=O)c1ccc(F)c([N+](=O)[O-])c1`, the cytotoxicity call with HSkMC is “inactive”. Further, the growth inhibition call with S. aureus RN4220 was “inactive”.

For the molecule `COc1cc(Nc2c(C#N)cnc3cc(OCCCN4CCN(C)CC4)c(OC)cc23)c(Cl)cc1Cl`, the cytotoxicity call in the experiment on HSkMC is “inactive”. In addition, the growth inhibition call in the experiment with S. aureus RN4220 is “inactive”.

Regarding `CC(C)N1CC[C@@H](CNCc2ccc(Oc3ccccc3)cc2)Oc2c(NC(=O)c3ccncc3)cccc2C1=O`, the cytotoxicity call with HSkMC was “inactive”. Further, the growth inhibition call with S. aureus RN4220 is “inactive”.

`Cc1ccc(S(=O)(=O)N(C)C[C@@H]2OCCCC[C@@H](C)Oc3ccc(NC(=O)CCC(F)(F)F)cc3C(=O)N([C@H](C)CO)C[C@H]2C)cc1`: in the experiment on HSkMC (human skeletal muscle cells), the cytotoxicity call is “inactive”. Besides, the growth inhibition call in the experiment on S. aureus RN4220 is “inactive”.
